Test results reported in article PMC4336329 (PLoS ONE, 2015).
The whole screen tested about 310,000 compounds, of which about 2,200 (0.71%) showed an effect of 50% or more. Effects have a minus sign here. The list shows a part of the results.

molecular target: human ether-à-go-go-related gene (hERG) potassium channel (human, UniProt Q12809); experiment: primary screen, population patch clamp on CHO cells stably expressing hERG
Sequence (Q12809 whole entry, looked up): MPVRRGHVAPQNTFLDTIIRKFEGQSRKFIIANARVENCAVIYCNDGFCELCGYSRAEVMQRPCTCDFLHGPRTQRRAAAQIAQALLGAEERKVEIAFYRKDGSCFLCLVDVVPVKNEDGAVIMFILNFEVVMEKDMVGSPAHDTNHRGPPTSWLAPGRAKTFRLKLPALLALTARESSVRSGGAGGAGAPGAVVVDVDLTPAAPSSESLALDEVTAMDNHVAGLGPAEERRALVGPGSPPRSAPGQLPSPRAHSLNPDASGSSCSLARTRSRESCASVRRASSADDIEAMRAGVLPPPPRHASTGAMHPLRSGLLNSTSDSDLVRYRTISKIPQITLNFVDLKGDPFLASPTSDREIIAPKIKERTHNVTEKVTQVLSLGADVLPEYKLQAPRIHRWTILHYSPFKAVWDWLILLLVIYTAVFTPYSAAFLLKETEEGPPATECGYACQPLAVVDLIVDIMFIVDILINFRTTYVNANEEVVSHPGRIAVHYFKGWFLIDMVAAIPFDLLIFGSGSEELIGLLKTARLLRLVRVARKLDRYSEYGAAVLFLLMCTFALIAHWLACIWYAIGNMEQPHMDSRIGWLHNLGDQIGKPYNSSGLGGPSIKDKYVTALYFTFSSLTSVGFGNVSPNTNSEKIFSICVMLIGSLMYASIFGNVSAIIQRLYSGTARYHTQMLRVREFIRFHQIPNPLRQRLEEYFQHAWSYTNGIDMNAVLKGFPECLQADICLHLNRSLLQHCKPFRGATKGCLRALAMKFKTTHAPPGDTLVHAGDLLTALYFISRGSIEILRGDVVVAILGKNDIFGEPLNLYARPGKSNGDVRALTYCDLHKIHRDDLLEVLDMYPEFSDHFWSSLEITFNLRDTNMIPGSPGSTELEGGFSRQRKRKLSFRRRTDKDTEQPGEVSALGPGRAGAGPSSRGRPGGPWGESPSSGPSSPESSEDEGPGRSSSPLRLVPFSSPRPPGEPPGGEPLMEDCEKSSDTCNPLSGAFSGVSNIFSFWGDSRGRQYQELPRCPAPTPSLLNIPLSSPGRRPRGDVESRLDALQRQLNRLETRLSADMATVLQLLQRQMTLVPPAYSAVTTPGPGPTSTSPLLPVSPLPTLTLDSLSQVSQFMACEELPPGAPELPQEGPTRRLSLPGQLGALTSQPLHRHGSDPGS

SMILES | hERG current change (%, negative = inhibition) at 1uM
COc1ccc2ccc3c(c2c1)N=C[C@]1(O3)N(C)c2ccccc2C1(C)C | 4.84%
CCOCCCn1c(SCc2ccccc2)nnc1-c1ccncc1 | 6.98%
C=CCN(CC=C)C(=O)c1cc(Cl)ccc1[N+](=O)[O-] | 9.3%
Cc1cccc(NCC(=O)N/N=C/c2cccc(Br)c2)c1 | 0.326%
CCOc1ccc(N2CC(C(=O)Nc3ccccc3N3CCCC3)CC2=O)cc1 (stereo not shown) | -7.71%
Cc1ccc(-c2cc(-c3ccccc3)no2)cc1 | 12.8%
CCC(=O)N1CCC2(CC1)Oc1ccc(F)cc1C(=O)C21CC(c2ccccc2)=NO1 (stereo not shown) | 16.7%
O=C(O/N=C1\CCS(=O)(=O)c2sccc21)C1CC1 | -3.05%
NNc1nc2ccc(Cl)cc2s1 | 1.16%
Cc1cccc(/C(N)=N/OC(=O)c2ccc(F)cc2)c1 | 3.4%
Cc1ccc(S(=O)(=O)N2CC3(C)CN(S(=O)(=O)c4ccc(C)cc4)CC(C)(C2)C3=O)cc1 | 14.4%
O=C(NCC(c1ccco1)N1CCc2ccccc2C1)c1ccccc1 (stereo not shown) | -3.13%
Cc1ccc2oc(=O)c(-c3ccc(O)cc3)c(C)c2c1 | 16.5%
Cc1ccc(CNC(=O)CN2C(=O)NC(C)(c3ccccc3Cl)C2=O)cc1 (stereo not shown) | 10.8%
C/C(=N\NC(=O)Cc1c(F)cccc1Cl)c1cccnc1 | 12%
O=C(NCc1ccc(Cl)cc1)C1CCN(S(=O)(=O)c2ccccc2)CC1 | 10.8%
C[C@]12CCC3[C@@H](CCC4=CC(=O)CC[C@@]43C=O)C1CCC2=O (stereo partly shown) | 16.8%
COc1cc2c(cc1OC)C1=C(C#N)CN(C3CCCCC3)CN1CC2 | 4.05%
CCN(CC(=O)Nc1c(F)cccc1F)C(=O)CNC(=O)c1sc2ccccc2c1Cl | 10.7%
Cc1ccc(N2C(=O)CS(=O)C(c3ccccc3)C2=O)cc1C (stereo not shown) | 11.4%
O=C1Nc2ccc(Br)cc2/C1=N/N=C/C1=C(N2CCOCC2)C(=C\c2ccccc2)/CC1 | 9.07%
COc1ccc(C(=O)OCC(=O)NC2CC2)cc1S(=O)(=O)N1CCOCC1 | 14.2%

SMILES | hERG current change (%, negative = inhibition) at 1uM
CCn1c(C)c(C)c2cc(C(=O)NCCCN3CCOCC3)ccc21 | 13.9%
CCC1CCCN1Cn1cnc2c([nH]c3ccc(C)cc32)c1=O (stereo not shown) | -54.9%
COc1ccc(-c2c(NC(=O)c3ccco3)oc3c(C)cccc3c2=O)cc1 | 13.8%
Cc1cc(Nc2ccccc2)c2c([N+](=O)[O-])cc(C)c(C)c2n1 | -9.78%
CC1CCN(CCCNC(=O)c2nn(C)c3c2CS(=O)(=O)c2ccccc2-3)CC1 | 4.87%
COc1ccc(CNC(=O)C2CCC(CNS(=O)(=O)c3cccs3)CC2)cc1 (stereo not shown) | -11.2%
CCOc1ccc(NC(=O)CN(C)C(=O)c2sc3ccccc3c2Cl)cc1OCC | 6.83%
Cc1ccc(C(CC(=O)O)Nc2nc(N3CCCCC3)nc(N3CCCCC3)n2)cc1 (stereo not shown) | 3.03%
CCOC(=O)C1=C(C)Nc2nnnn2C1c1cccnc1 (stereo not shown) | 15.2%
CNS(=O)(=O)c1cc(Br)ccc1S(=O)c1ccccc1C(=O)O (stereo not shown) | 13.7%
CC1=Nc2cc(Cl)ccc2Oc2ccccc21 | 12.6%
COc1ccc(CCNC(=O)C2CCN(S(=O)(=O)c3ccc(OC)c(OC)c3)CC2)cc1OC | 6.7%
Cc1ccccc1NC(=O)CCC(=O)N/N=C/c1ccc(F)cc1 | 16.6%
COc1ccc(NC(=O)[C@H](C)NC(N)=O)cc1S(=O)(=O)Nc1cc(C)ccc1Br | 9.7%
Cc1cc(C)c2[nH]c(O)c(N=NC(=S)NCC3CCCO3)c2c1 (stereo not shown) | 5.2%
CC(C(=O)c1cn(C)c2ccccc12)c1ccccc1 (stereo not shown) | 18.3%
CCn1cc(/C=N\NC(=O)c2cc(-c3ccccc3OC)nc3ccccc23)c(C)n1 | 9.66%
O=C(CNS(=O)(=O)c1c(Cl)cccc1Cl)N1CCCCCC1 | 12.5%
Cn1c(=O)n(Cc2ccccc2F)c2ccccc21 | -14.3%
CN(C)c1ccc(C(O)Cc2nc3ccccc3n2C)cc1 (stereo not shown) | 8.35%
CS(=O)(=O)N1CCN(C(=O)Cc2ccccc2Cl)CC1 | 17.7%
O=c1c2c(-c3ccc([N+](=O)[O-])cc3)csc2nc2n1CCC2 | -43.9%

SMILES | hERG current change (%, negative = inhibition) at 1uM
COc1ccc(OC)c(S(=O)(=O)n2nnc3cc(Cl)ccc32)c1 | 11.1%
COc1ccccc1N1CCN(C/C(C)=C/c2ccccc2)CC1 | -10.4%
Cc1occc1C(=O)NCc1ccccc1 | 13%
COc1ccc(C2(O)CCN(C(=O)c3c(F)cccc3F)CC2)cc1 | 7.24%
CC(=O)Nc1ccc(S(=O)(=O)NCC(=O)OCC(=O)N2CCc3ccccc32)cc1 | 2.85%
O=C(Nc1ccccc1F)c1ccc(CSc2ccccc2)o1 | 4.79%
CN(C)/C=C/C(=O)c1cccc(C(F)(F)F)c1 | 5.24%
COC(=O)C1CCCN1C(=O)COc1ccc(Cl)cc1Br (stereo not shown) | 0.568%
O=C(Nc1ccc(F)c(F)c1)c1cnc(-c2ccccc2)nc1-c1ccccc1 | -14.1%
Cc1ccc(C(C)C)c(OCC(=O)Nc2sc3c(c2C#N)CC(C)(C)NC3(C)C)c1 | 9.52%
CCCCc1nc2ccccc2c(=O)n1NC(=O)c1c(O)c2cccc3c2n(c1=O)CC3 | 3.13%
O=C(Nc1ccccc1C(=O)O)c1cc(S(=O)(=O)N2CCOCC2)c(Br)s1 | 16.8%
CN(Cc1cccs1)S(=O)(=O)c1cccs1 | 14.7%
CC(=O)N1N=C(c2cccs2)CC1c1cc2cc(C)ccc2nc1Cl (stereo not shown) | 9.16%
COc1ccc(C(=O)Nc2ccc(S(=O)(=O)Nc3cc(C)nc(C)n3)cc2)c(OC)c1 | 6.48%
CC(C)N1CCc2[nH]c(=S)[nH]c(=O)c2C1 | 4.91%
NC(=O)[C@@H]1CCCNc2c(I)cc([N+](=O)[O-])cc2C(=O)N[C@@H](CO)C(=O)N[C@@H](Cc2ccc(O)cc2)C(=O)N1 | 19.1%
NS(=O)(=O)c1ccc(CNC(=S)Nc2ccc(F)c(Cl)c2)cc1 | 24.1%
c1csc(-c2ccc3ccccc3n2)c1 | 11%
CN(C)c1ccc(NC(=S)c2ccccn2)cc1 | 17.9%
Cc1nc(Nc2cccc(Cl)c2)c2oc3ccccc3c2n1.Cl | 9.74%
CCN(CC)S(=O)(=O)c1ccc(C(=O)NCC(=O)N/N=C/c2ccccc2OC)cc1 | -3.97%

SMILES | hERG current change (%, negative = inhibition) at 1uM
Cc1ccc(NC(=O)CCNS(=O)(=O)c2ccc3[nH]c(=O)oc3c2)cc1F | 12.7%
Cc1nc(NC(=O)c2ccc(F)cc2)sc1C(=O)Nc1ccc2c(c1)CCC2 | 15.5%
COc1ccc(C(=O)n2nc(C)c(Br)c2C)cc1 | 15.5%
Oc1ccc2ccccc2c1CN1CCN(c2ccccc2)CC1 | 10.5%
CCCCCNc1nc(NCCCO)c(C#N)c2c1CN(C)CC2 | -46.9%
CCCn1cc2c(c1-c1cccc(C)c1)c(=O)n(C)c(=O)n2C | 7.06%
CCCCNC(C(=O)Nc1ccc(Cl)c([N+](=O)[O-])c1)c1ccccc1.O=C(O)C(=O)O (stereo not shown) | 11.5%
Cc1ccc(S(=O)(=O)N2CCOCC2)cc1C(=O)OC(C)C(=O)NC1CCCC1 (stereo not shown) | -0.763%
Cc1ccc2nc(N3CCC(C(=O)O)CC3)nc(-c3ccccc3)c2c1 | 14.9%
CN(C)c1ccc(NC(=O)CSc2nnc(-c3ccco3)c(-c3ccco3)n2)cc1 | 12.4%
O=C(CCS(=O)(=O)c1ccc(Cl)cc1)N1CCN(S(=O)(=O)c2cccs2)CC1 | 5.34%
CCCCC(=O)Nc1ccccc1CC | -31.3%
O=C(O)CCn1c(SCCOc2ccccc2)nc2ccccc21 | 14.1%
CCCN1C(=O)C2C(C(=O)Nc3cccc(OC)c3)C3C=CC2(O3)C1C(=O)NC1CCCCC1 (stereo not shown) | 9.65%
CCSc1nc2c(c(=O)n(C)c(=O)n2C)n1Cc1ccc(Cl)cc1 | 10.1%
Cc1ccn2c(=O)nc(SCC(=O)N3CCCc4ccccc43)nc2c1 | 5.31%
COc1ccc(C(=O)CSc2nnc(-c3ccc(C)cc3)o2)cc1 | 4.57%
CCC(C)NC(=O)c1ccccc1NS(=O)(=O)c1ccc(OC)c(OC)c1 (stereo not shown) | 11.8%
CCCn1c2ccccc2c2cnn(CC(=O)NCCN(CC)CC)c(=O)c21 | -67%
NC(=S)N1OC[C@@H]2COc3ccc4ccccc4c3[C@@H]21 | 8.8%
O=C(Cn1c(=O)c2sccc2n(Cc2cccc([N+](=O)[O-])c2)c1=O)NCCc1ccccc1 | -6.53%
Cc1ccc(S(=O)(=O)NCCC(=O)Nc2cccc(Cl)c2)cc1 | 7.91%
